Measurements from publication PMC5362947.
These are yes or no findings as the source states them, for the method shown. In cells and extracts the contact can be indirect. Some binding calls cover weakened binding; strength is not graded here. Tags and fused reporters may be left off the sequences shown.

Chains of the proteins cited; added tags and fusions are not shown. Residues count along the entry.
UniProt P56726, residues 33-793: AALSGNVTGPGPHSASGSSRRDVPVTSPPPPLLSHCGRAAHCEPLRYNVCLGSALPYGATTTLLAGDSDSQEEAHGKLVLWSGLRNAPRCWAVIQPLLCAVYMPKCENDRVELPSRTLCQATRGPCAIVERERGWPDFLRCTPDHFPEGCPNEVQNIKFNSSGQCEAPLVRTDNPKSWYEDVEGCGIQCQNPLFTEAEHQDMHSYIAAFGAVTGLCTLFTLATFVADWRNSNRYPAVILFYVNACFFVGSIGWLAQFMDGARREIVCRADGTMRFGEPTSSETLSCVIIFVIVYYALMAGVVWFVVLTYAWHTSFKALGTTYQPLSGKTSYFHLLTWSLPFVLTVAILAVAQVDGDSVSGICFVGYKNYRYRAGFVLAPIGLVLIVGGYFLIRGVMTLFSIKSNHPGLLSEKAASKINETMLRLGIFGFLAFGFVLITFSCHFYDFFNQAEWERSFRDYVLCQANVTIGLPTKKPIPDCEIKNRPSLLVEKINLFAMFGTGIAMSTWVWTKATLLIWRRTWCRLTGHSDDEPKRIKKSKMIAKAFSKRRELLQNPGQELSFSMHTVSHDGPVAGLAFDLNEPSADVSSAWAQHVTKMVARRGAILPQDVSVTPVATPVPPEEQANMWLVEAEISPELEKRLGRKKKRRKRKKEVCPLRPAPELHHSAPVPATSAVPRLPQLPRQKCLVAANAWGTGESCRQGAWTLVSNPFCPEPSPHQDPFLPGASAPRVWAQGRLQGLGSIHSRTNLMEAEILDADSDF

T1: GST-EHD1-438-534 (UniProt Q9H4M9)
T1 sequence: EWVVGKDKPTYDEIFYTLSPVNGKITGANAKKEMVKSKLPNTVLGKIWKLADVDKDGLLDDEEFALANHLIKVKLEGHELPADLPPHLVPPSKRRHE

T2: GST-EHD1-399-534 (UniProt Q9H4M9)
T2 sequence: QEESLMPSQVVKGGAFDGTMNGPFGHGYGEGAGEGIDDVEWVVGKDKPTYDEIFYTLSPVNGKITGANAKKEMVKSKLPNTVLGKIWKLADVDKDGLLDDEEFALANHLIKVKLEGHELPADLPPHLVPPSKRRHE

T3: GST-EHD1-399-534-W485A mutant (UniProt Q9H4M9)
T3 sequence: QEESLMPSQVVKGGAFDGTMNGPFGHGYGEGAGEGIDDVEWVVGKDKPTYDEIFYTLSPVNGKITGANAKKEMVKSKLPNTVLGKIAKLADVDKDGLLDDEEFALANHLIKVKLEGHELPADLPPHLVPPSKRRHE


Legend:
[1] = target: T1, GST-EHD1-438-534; assay: pull-down; 50 μg GST fusion protein non-covalently bound to Glutathione-Sepharose beads; 5 mg lysate protein of NIH-3T3 cells (serum-deprived 24 hours, then SAG 24 hours); anti-smoothened immunoblotting; only the target purified
[2] = target: T2, GST-EHD1-399-534; assay: as above
[3] = target: T1, GST-EHD1-438-534; assay: pull-down; 50 μg GST fusion protein non-covalently bound to Glutathione-Sepharose beads; 2 mg lysate protein of HEK-293T cells transiently transfected with Rabenosyn 5-GFP; anti-GFP immunoblotting; only the target purified
[4] = target: T2, GST-EHD1-399-534; assay: as above
[5] = target: T3, GST-EHD1-399-534-W485A mutant; assay: as above

Row | binding [1] | binding [2] | binding [3] | binding [4] | binding [5] | Molecule
1 | no binding | binds |  |  |  | Smoothened (from UniProt P56726 33-793) (receptor)
2 |  |  | binds | binds | no binding | human Rabenosyn 5-GFP (protein, UniProt Q9H1K0 1-784) MASLDDPGEVREGFLCPLCLKDLQSFYQLHSHYEEEHSGEDRDVKGQIKSLVQKAKKAKDRLLKREGDDRAESGTQGYESFSYGGVDPYMWEPQELGAVRSHLSDFKKHRAARIDHYVVEVNKLIIRLEKLTAFDRTNTESAKIRAIEKSVVPWVNDQDVPFCPDCGNKFSIRNRRHHCRLCGSIMCKKCMELISLPLANKLTSASKESLSTHTSPSQSPNSVHGSRRGSISSMSSVSSVLDEKDDDRIRCCTHCKDTLLKREQQIDEKEHTPDIVKLYEKLRLCMEKVDQKAPEYIRMAASLNAGETTYSLEHASDLRVEVQKVYELIDALSKKILTLGLNQDPPPHPSNLRLQRMIRYSATLFVQEKLLGLMSLPTKEQFEELKKKRKEEMERKRAVERQAALESQRRLEERQSGLASRAANGEVASLRRGPAPLRKAEGWLPLSGGQGQSEDSDPLLQQIHNITSFIRQAKAAGRMDEVRTLQENLRQLQDEYDQQQTEKAIELSRRQAEEEDLQREQLQMLRERELEREREQFRVASLHTRTRSLDFREIGPFQLEPSREPRTHLAYALDLGSSPVPSSTAPKTPSLSSTQPTRVWSGPPAVGQERLPQSSMPQQHEGPSLNPFDEEDLSSPMEEATTGPPAAGVSLDPSARILKEYNPFEEEDEEEEAVAGNPFIQPDSPAPNPFSEEDEHPQQRLSSPLVPGNPFEEPTCINPFEMDSDSGPEAEEPIEEELLLQQIDNIKAYIFDAKQCGRLDEVEVLTENLRELKHTLAKQKGGTD
